{"source": "patent US5126436A", "about": "(priority 1989, dated 1992)", "test_system": "Pseudomonas aeruginosa N-10 L-form", "assay": "microbe, parasite or virus in culture", "settings": "N10LFORM, read-out: Inhibition Circle", "excerpt": "The value in paretheses in the table denotes a partial inhibition.", "data": [{"smiles": "CC=C(C)C(O)C(C)C=C(C)C=CCC(C)=CCc1nc(OC)c(OC)c(OC2OC(C)C(O)C(O)C2O)c1C", "note": "(stereo not shown)", "values": [{"measurement": "zone of inhibition at 20 µg/disc", "value": 14, "unit": "mm"}]}]}
